Experimental data published in PubChem BioAssay AID1963576 (National Center for Advancing Translational Sciences (NCATS), 2024).
Hit rate of the full screen: of about 46,000 compounds, about 60 (0.1%) were called active. Not shown: some 3% with an inconclusive outcome. Calls follow the shape of the dose curve; as a rule, active = well fitted inhibition curve with a large enough effect; inconclusive = small, poorly fitted or top-dose-only effect; inactive = no such curve, though single readings can be large or run the other way. This is one part of the list.

assay: Primary qHTS assay for Inhibitors of ovarian cancer metastasis using an organotypic tumor microenvironment (TME) model.; also: nearly all actives have a fitted effect of over 65% in size;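 as to activity change, negative = inhibition: plate controls were DMSO wells for no effect and tomatine positive control wells for full effect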; details: SKOV3ip1-GFP adhesion/invasion on 3D omental model, fluorescence; series mostly up to 45.8 µM; activity change, negative = inhibition: at the top concentration
Summary of the method: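 A 3D layer of primary human omental fibroblasts, mesothelial cells, fibronectin and collagen I, grown 48 hr, received SKOV3ip1-GFP cells in serum-free medium plus compounds at 0.36-46 umol/L. After 2 hr RT and 16 hr 37 C, fixed adherent GFP cells were counted; normalized to DMSO and tomatine.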

Structure (SMILES)	activity change, negative = inhibition	outcome
COc1cccc2cc(-c3nc(-c4ccc(C)cc4)c(C)s3)c(=O)oc12	inactive: -6.98%	–
Cc1ccc(NC(=O)CCNS(=O)(=O)c2ccc3c(c2)CCCC(=O)N3)cc1	–	inactive
CCOc1ccccc1NC(=O)CN1C=NS(=O)(=O)c2ccccc21	inactive: -6.72%	–
Cc1ccc(CCNC(=O)c2ccc(CS(=O)(=O)Cc3ccccc3F)o2)cc1	inactive: 6.14%	–
COc1cccc(N2CC(NC(=O)C3CC3)CC2=O)c1 (stereo unspecified)	–	inactive
COc1ccc(NC(=O)Cn2c(=O)n(-c3ccc(C)c(C)c3)c(=O)c3c(C)c(C)sc32)cc1	inactive: 24.2%	–
COc1ccc(NC(=O)Cc2noc3ccc(C)cc23)cc1Cl	inactive: 11.6%	–
CC1=C(C(=O)Nc2cccc(C(F)(F)F)c2)C(c2ccccc2)n2ncnc2N1 (stereo unspecified)	–	inactive
CCc1cccc(C)c1NC(=O)CCn1nc(C)c2c(C)n(-c3ccccc3)nc2c1=O	inactive: -2.7%	–
CCc1ccc2c(c1)c(=O)c(S(=O)(=O)c1ccccc1)cn2CC(=O)Nc1ccc(OC)cc1	inactive: 27.8%	–
COCC(=O)N1c2nc(-c3ccco3)nn2C2(CCCCC2)[C@@H]2CCCC[C@@H]21	inactive: 3.59%	–
Cc1ccc(NC(=O)Cn2nnc(C(=O)NCCc3ccccc3)c2N)cc1Cl	inactive: -2.45%	–
CCOC(=O)c1c(S(=O)(=O)N2CCC(C(=O)Nc3cccc(C)n3)CC2)c(C)n(C)c1C	inactive: -2.44%	–
CCCN(C(=O)c1cc2c(=O)oc3ccccc3c2s1)c1ccccc1C	–	inactive
CCC(C)NC(=O)Cn1c(=O)ccc2cc(S(=O)(=O)N3CCCC3)ccc21 (stereo unspecified)	–	inactive
COc1ccc(N2CCN(c3cc(C)nc4nncn34)CC2)cc1	inactive: 24.2%	–
Cc1ccc(C)c(N2CCN(c3nc4c(S(=O)(=O)c5ccccc5)nnn4c4ccc(Cl)cc34)CC2)c1	inactive: 10.8%	–
CCOc1ccc2c(c1)c(=O)c(C(=O)c1ccc(CC)cc1)cn2CC(=O)Nc1ccccc1C	–	inactive
Cc1ccc(CCNC(=O)c2ccc(NC(=O)N3CCSc4ccccc43)cc2)cc1	inactive: 0.799%	–
Cc1ccc(CNC(=O)C(C)n2ccc3cc(S(=O)(=O)N4CCCC4)ccc32)cc1 (stereo unspecified)	inactive: -16.3%	–
Cc1ccc(S(=O)(=O)NCCc2csc3nc(-c4ccccc4C)nn23)cc1	inactive: 8.48%	–
COc1ccc(NC(=O)CN2C(=O)C3(SCC(=O)N3c3cccc(OC)c3)c3ccccc32)cc1 (stereo unspecified)	–	inactive
O=C(CSc1nc2ccccc2n1Cc1c(F)cccc1Cl)N1CCN(c2ccc(F)cc2)CC1	inactive: -29.8%	–

Structure (SMILES)	activity change, negative = inhibition	outcome
O=C(CSc1nc2ccsc2c(=O)n1Cc1ccccc1Cl)NCc1ccc(Cl)cc1	inactive: -8.96%	–
CCOc1cc(CNC(=O)c2ccc3nc(CCc4ccccc4)oc3c2)ccc1OC	inactive: -7.37%	–
CCOc1ccc(N2CC(c3nc4ccccc4n3CCOc3ccc(CC)cc3)CC2=O)cc1 (stereo unspecified)	inactive: -8.45%	–
Cc1ccccc1NC(=O)c1cnc2sc(N3CCCC3)nn2c1=O	inactive: 8.28%	–
CCC(C(=O)N1CCN(c2ccccc2)CC1)n1nc(C)c2sc3ccccc3c2c1=O (stereo unspecified)	–	inactive
COc1ccc(N2CC(NC(=O)c3c(F)cccc3Cl)CC2=O)cc1OC (stereo unspecified)	–	inactive
COc1cccc(C2=CC(c3ccccc3F)n3c(nc4ccccc43)N2)c1 (stereo unspecified)	inactive: 1.73%	–
O=C(Nc1nnc(SCc2cc(=O)n3cc(Cl)ccc3n2)s1)c1cccc(F)c1	inactive: -14.1%	–
O=C(c1ccc2c(Cl)c3c(nc2c1)CCCC3)N1CCN(c2ccccc2F)CC1	–	inactive
O=C(NCc1ccccc1)c1ccc2c(c1)nc1n2CCCCC1	–	inactive
Cc1cc(C)cc(NC(=O)Cn2c3ncccc3c(=O)n2-c2ccc(C)c(C)c2)c1	inactive: -11.5%	–
O=C(Cn1cnc2nc3c(cc2c1=O)CCCC3)N1CCN(c2ccccc2)CC1	inactive: 3.32%	–
Cc1ccc(CSc2ncc(Cl)c(C(=O)Nc3sc4c(c3C(N)=O)CCCC4)n2)cc1	inactive: 4.7%	–
CCc1nn2c(=O)cc(COc3ccc(/C=C(\C#N)C(=O)Nc4ccc(C)cc4)cc3)nc2s1	inactive: 39.7%	–
Cc1cccc(N2CCN(Cc3nnc(-c4ccc5c(c4)OCO5)o3)CC2)c1C	inactive: -21.4%	–
Cc1cccc(C#Cc2ccccc2)n1	inactive: -6.75%	–
O=C(CN1C(=O)C2CCCCN2c2ccc(C(=O)N3CCCC3)cc21)NCc1cccc(F)c1 (stereo unspecified)	inactive: 0.943%	–
Cc1ccccc1CNC(=O)C(=O)NCC(c1cccs1)S(=O)(=O)c1ccc(Cl)cc1 (stereo unspecified)	inactive: 8.46%	–
COc1ccc(NC(=O)Nc2ccccc2OCc2cc(=O)n3ccccc3n2)c(OC)c1	inactive: 8.69%	–
Cc1ccc(-c2cc(C(F)(F)F)c(C#N)c(SCC(=O)O)n2)cc1	inactive: -6.67%	–
O=C(Cn1c(=O)c2cccn2c2ccc(F)cc21)N1CCN(c2ccccc2)CC1	–	inactive
CCc1ccc(NC(=O)Cn2c(=O)n(CC3CCCO3)c(=O)c3cc(OC)c(OC)cc32)cc1 (stereo unspecified)	–	inactive
COc1ccc2oc(-c3ccc(C)c(NC(=O)CSc4ccc(Cl)cc4)c3)nc2c1	inactive: -1.41%	–
